Experimental data as given in patent US20200164029A1 (ACCELERON PHARMA, published 2020).

How the values were obtained:
[1] = molecular target: T1, human BMP-10 (human, UniProt O95393 317-424); assay: summary table of CHO-cell-derived fusion proteins; method not given
T1 construct: also called hBMP-10
T1 sequence (looked up): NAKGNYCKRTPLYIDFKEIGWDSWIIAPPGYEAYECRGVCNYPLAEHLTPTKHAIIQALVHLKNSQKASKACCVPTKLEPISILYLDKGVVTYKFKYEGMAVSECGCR

[2] = molecular target: T2, human BMP-9 (human, UniProt Q9UK05 320-429); assay: as above
T2 construct: also called hBMP-9
T2 sequence (looked up): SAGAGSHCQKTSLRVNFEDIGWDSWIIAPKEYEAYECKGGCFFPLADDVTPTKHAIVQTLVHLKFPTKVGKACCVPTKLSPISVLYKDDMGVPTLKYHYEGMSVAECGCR

[3] = molecular target: T1, human BMP-10; assay: cell-based or functional assay
[4] = molecular target: T2, human BMP-9; assay: cell-based or functional assay
[5] = molecular target: T3, human TGF-β3 (human, UniProt P10600 301-412); assay: SPR ligand panel
T3 construct: also called hTGF-β3
T3 sequence (looked up): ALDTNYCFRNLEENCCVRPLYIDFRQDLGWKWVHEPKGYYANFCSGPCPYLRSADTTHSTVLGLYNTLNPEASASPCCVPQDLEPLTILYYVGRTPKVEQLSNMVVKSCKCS

[6] = molecular target: T4, human activin A (human, UniProt P08476 311-426); assay: SPR ligand panel
T4 construct: also called hActivin A
T4 sequence (looked up): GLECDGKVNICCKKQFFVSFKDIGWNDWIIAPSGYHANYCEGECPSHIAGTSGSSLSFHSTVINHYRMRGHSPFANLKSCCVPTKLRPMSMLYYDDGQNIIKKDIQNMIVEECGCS

[7] = molecular target: T5, human TGF-β1 (human, UniProt P01137 in part); assay: SPR ligand panel
T5 construct: also called hTGF-β1
T5 sequence (P01137 279-390 limits assumed): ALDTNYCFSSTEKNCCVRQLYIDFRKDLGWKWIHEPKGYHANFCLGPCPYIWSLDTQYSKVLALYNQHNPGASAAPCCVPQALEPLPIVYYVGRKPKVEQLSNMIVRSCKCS

[8] = molecular target: T6, human TGF-β2 (human, UniProt P61812 303-414); assay: SPR ligand panel
T6 construct: also called hTGF-β2
T6 sequence (looked up): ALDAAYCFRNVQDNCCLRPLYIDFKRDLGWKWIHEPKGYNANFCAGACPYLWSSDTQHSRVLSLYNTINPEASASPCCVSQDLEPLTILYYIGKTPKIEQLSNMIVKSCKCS

[9] = molecular target: T7, human BMP-2 (human, UniProt P12643 283-396); assay: SPR ligand panel
T7 construct: also called hBMP-2
T7 sequence (looked up): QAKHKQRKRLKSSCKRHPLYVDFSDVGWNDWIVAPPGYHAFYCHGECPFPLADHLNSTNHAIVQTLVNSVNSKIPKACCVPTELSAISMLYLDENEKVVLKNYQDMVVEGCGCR

[10] = molecular target: T8, human BMP-7 (human, UniProt P18075 293-431); assay: SPR ligand panel
T8 construct: also called hBMP-7
T8 sequence (looked up): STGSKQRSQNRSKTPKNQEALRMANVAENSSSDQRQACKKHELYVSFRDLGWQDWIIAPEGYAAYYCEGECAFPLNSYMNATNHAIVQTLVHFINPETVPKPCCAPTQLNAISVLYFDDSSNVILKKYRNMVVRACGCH

[11] = molecular target: T9, hBMP-2/7 (human, UniProt P12643 283-396; P18075 293-431); assay: SPR ligand panel
T9 construct: read as the BMP-2/BMP-7 heterodimer
T9 sequence (looked up) 1: T7 sequence (looked up)
T9 sequence (looked up) 2: T8 sequence (looked up)

[12] = molecular target: T1, human BMP-10; assay: SPR kinetics, CHO-cell-derived protein
[13] = molecular target: T1, human BMP-10; assay: cell-based or functional assay; remark: listed apart in the source
[14] = molecular target: T2, human BMP-9; assay: cell-based or functional assay; remark: listed apart in the source
[15] = molecular target: T10, FGF-2 (human, UniProt P09038 in part, limits assumed); assay: SPR
T10 construct: also called basic fibroblast growth factor
T10 sequence (P09038 143-288 limits assumed): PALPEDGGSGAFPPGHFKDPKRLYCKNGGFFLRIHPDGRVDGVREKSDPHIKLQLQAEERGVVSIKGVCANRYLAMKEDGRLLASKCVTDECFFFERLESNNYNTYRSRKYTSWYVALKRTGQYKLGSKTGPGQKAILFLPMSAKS

[16] = molecular target: T11, VEGF (human, UniProt P15692-4 27-191, limits assumed); assay: SPR
T11 construct: also called vascular endothelial growth factor
T11 sequence (looked up): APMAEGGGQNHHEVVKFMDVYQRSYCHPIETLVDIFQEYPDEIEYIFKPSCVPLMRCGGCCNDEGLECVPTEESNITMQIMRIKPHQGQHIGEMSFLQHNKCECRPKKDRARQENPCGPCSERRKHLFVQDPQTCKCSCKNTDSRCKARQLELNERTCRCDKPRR

[17] = molecular target: T2, human BMP-9; assay: SPR kinetics, captured CHO-cell-derived protein
Description: BMP-9 binding to captured CHO-cell-derived proteins was assessed at ligand concentrations of 0.0195-0.625 nM in two-fold increments. RU, response units.

Kd [1]: 140 pM
koff [1]: 0.0028 s⁻¹
Kd [2]: 4.3 pM
koff [2]: 0.00024 s⁻¹
IC50 (nM), BRE-luciferase reporter-gene assay in A204 cells [3]: 4.6 nM
IC50 (nM), BRE-luciferase reporter-gene assay in A204 cells [4]: 0.19 nM
binding result [5]: no binding (tested: 50 nM)
binding result [6]: no binding (tested: 100 nM)
binding result [7]: no binding (tested: 100 nM)
binding result [8]: no binding (tested: 100 nM)
binding result [9]: no binding (tested: 100 nM)
binding result [10]: no binding (tested: 100 nM)
binding result [11]: no binding (tested: 100 nM)
Kd [12]: 140 pM
koff [12]: 0.0028 s⁻¹
Potency (cell-based IC50) [13]: 4600 pM
Potency (cell-based IC50) [14]: 190 pM
binding result [15]: no binding
binding result [16]: no binding
Kd [17]: 4.3 pM
koff [17]: 0.00024 s⁻¹
B1: hENG(26-346)-hFc (truncated Fc) (Fc fusion)
chain: ETVHCDLQPVGPERDEVTYTTSQVSKGCVAQAPNAILEVHVLFLEFPTGPSQLELTLQASKQNGTWPREVLLVLSVNSSVFLHLQALGIPLHLAYNSSLVTFQEPPGVNTTELPSFPKTQILEWAAERGPITSAAELNDPQSILLRLGQAQGSLSFCMLEASQDMGRTLEWRPRTPALVRGCHLEGVAGHKEAHILRVLPGHSAGPRTVTVKVELSCAPGDLDAVLILQGPPYVSWLIDANHNMQIWTTGEYSFKIFPEKNIRGFKLPDTPQGLLGEARMLNASIVASFVELPLASIVSLHASSCGGRLQTSPAPIQTTPPTG[left out - human IgG1 Fc and a few adjoining residues]
